Consider 43 compounds from paper PMC4336329 (PLoS ONE, 2015).

In all, about 310,000 compounds went through this assay and about 14,000 (4.5%) showed an effect of 50% or more. Effects have a minus sign here. The list shows a part of the results.
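Also: peak tail current of the secondary pulse compared with the same well before compound.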

This assay deals with human ether-à-go-go-related gene (hERG) potassium channel (human, UniProt Q12809). Put plainly: primary screen, population patch clamp on CHO cells stably expressing hERG.
human ether-à-go-go-related gene (hERG) potassium channel, sequence (Q12809 whole entry, looked up): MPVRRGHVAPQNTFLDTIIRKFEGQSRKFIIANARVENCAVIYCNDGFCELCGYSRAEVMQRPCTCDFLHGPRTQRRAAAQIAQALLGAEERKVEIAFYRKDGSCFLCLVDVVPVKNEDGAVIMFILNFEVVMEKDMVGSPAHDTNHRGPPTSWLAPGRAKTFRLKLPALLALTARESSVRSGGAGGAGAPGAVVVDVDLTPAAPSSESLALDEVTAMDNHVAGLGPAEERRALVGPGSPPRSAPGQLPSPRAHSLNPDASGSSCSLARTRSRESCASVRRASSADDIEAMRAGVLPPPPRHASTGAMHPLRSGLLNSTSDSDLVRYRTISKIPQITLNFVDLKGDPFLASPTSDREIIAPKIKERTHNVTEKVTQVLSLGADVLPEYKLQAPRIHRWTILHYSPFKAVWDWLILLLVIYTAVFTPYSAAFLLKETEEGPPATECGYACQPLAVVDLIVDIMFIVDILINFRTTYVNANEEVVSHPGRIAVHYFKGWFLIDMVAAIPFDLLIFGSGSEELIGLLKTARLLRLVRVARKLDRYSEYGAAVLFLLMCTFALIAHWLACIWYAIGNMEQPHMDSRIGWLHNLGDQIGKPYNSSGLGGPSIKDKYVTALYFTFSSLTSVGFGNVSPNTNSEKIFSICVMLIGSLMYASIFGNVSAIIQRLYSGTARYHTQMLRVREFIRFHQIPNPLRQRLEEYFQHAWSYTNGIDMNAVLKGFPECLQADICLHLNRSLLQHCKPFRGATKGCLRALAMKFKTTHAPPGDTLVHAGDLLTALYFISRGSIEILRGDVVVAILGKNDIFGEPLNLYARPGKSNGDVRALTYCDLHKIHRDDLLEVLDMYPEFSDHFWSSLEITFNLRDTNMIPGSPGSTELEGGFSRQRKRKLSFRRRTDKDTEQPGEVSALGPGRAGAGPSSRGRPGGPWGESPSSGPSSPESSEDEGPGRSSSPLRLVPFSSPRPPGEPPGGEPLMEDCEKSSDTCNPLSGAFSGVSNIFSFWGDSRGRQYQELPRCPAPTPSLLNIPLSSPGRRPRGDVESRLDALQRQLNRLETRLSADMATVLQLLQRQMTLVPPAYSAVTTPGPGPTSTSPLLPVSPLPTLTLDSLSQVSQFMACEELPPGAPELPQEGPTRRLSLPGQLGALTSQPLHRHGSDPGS
As to `O=S(=O)(Nc1ccc(N2CCOCC2)cc1)c1ccc(Cl)s1`, the “hERG current change (%, negative = inhibition) at 10uM” value is -9.13%.

For the compound `NS(=O)(=O)c1ccc(NC(=O)/C=C/c2ccccc2[N+](=O)[O-])cc1`, the “hERG current change (%, negative = inhibition) at 10uM” value stood at 15.9%. On to `CC(=O)c1cccc(Nc2nc(-c3ccccc3)nc3ccccc23)c1.Cl`, for which the “hERG current change (%, negative = inhibition) at 10uM” value came to 26.9%. `c1ccc2c(c1)nc(N1CCOCC1)c1ccccc12`: the “hERG current change (%, negative = inhibition) at 10uM” value is 11.2%.

Consider `CC(C)OCC(O)Cn1c(N2CCCC2)nc2c1c(=O)[nH]c(=O)n2C` (stereo not shown), for which the “hERG current change (%, negative = inhibition) at 10uM” value is given as 2.06%. Consider `CCN(C(=O)CSc1nnc(C)n1-c1cccc(C)c1)C1CCS(=O)(=O)C1` (stereo not shown), for which the “hERG current change (%, negative = inhibition) at 10uM” value was found to be 5.87%.

For the compound `CC(C)COc1ccc(S(=O)(=O)NNC(=O)c2cc3ccccc3o2)cc1`, the “hERG current change (%, negative = inhibition) at 10uM” value is -8.79%.

Take `COc1ccc(NC(=O)c2ccc(N3C(=O)C4CC=C(Cl)CC4C3=O)cc2)cc1` (stereo not shown): the “hERG current change (%, negative = inhibition) at 10uM” value is 16.3%. Regarding `Cc1ccc(Oc2nnc(-c3cccs3)c3ccccc23)cc1`, the “hERG current change (%, negative = inhibition) at 10uM” value is given as -0.00742%.

For `COc1ccccc1NC(=O)Nc1ccnn1C1CCN(C(=O)c2cscn2)CC1`, the “hERG current change (%, negative = inhibition) at 10uM” value came out at 4.82%. With `CCc1ccc(NC(=O)C(CC)c2ccccc2)cc1` (stereo not shown), the “hERG current change (%, negative = inhibition) at 10uM” value was found to be 11.5%. For the compound `Oc1ccccc1C1CC(c2cccs2)=NC(c2cccc(Br)c2)N1` (stereo not shown), the “hERG current change (%, negative = inhibition) at 10uM” value came to 13.3%.

Regarding `Cc1cc(NC(=O)CSc2nnc(-c3cccnc3)n2C2CCCCC2C)no1` (stereo not shown), the “hERG current change (%, negative = inhibition) at 10uM” value is 3.83%. The value for `COc1cc(NC(C)=O)c2ncccc2c1NC(C)=O` was 17.8%. Turning to `COc1ccc(OCC(=O)Nc2ccc(S(=O)(=O)N3CCCCC3)cc2)cc1`, the “hERG current change (%, negative = inhibition) at 10uM” value is listed as -20.2%. The value for `Cc1cc(C)n(-c2ccc(C(=O)N3CCN(c4ccccn4)CC3)cc2)n1` was -32.5%. The value for `N#C/C(=C\c1ccc(N2CCOCC2)o1)C(=O)N1CCOCC1` was -1.67%; that for `Cc1cc(NC(=O)CCN2CCCCC2)ccc1Br` was -72.8%; that for `CC1CCCCC1NC(=O)C1CCN(C(=O)c2sccc2-n2cccc2)CC1` (stereo not shown) was -21%.

Take `O=C(N/N=C/c1c[nH]c2ccccc12)c1sc2ccccc2c1Cl`: the “hERG current change (%, negative = inhibition) at 10uM” value was found to be 14.3%.

As to `Cc1ccc(Cl)c2c1NC(=O)C2(O)CC(=O)c1ccccc1O` (stereo not shown), the “hERG current change (%, negative = inhibition) at 10uM” value worked out at 5.71%. Regarding `CCN(C(=O)COC(=O)c1c(C)c(-c2ccccc2)nc2ccccc12)C1CCS(=O)(=O)C1` (stereo not shown), the “hERG current change (%, negative = inhibition) at 10uM” value was -24.9%. As to `CCc1ccc(CCC(=O)Nc2nnc(CC)s2)o1`, the “hERG current change (%, negative = inhibition) at 10uM” value is listed as -0.629%. In the case of `COC(=O)c1ccc(C(C(=O)NC2CCCCC2)N(Cc2ccc(F)cc2)C(=O)Cc2cccs2)cc1` (stereo not shown), the “hERG current change (%, negative = inhibition) at 10uM” value was -9.24%.

`CN(C)c1ccc(/C=N/NC(=S)NCc2ccccc2)cc1`: the “hERG current change (%, negative = inhibition) at 10uM” value was 15.3%. Consider `COC(=O)c1ccc(NC(c2ccc(Cl)cc2)P(=O)(OC)OC)cc1` (stereo not shown), for which the “hERG current change (%, negative = inhibition) at 10uM” value was -0.00382%.

Consider `CN1C(C(=O)Nc2ccc(F)cc2F)=CC(c2cccs2)=NS1(=O)=O`, for which the “hERG current change (%, negative = inhibition) at 10uM” value is -1.33%. Regarding `Cc1ccc(S(=O)(=O)NCC(=O)N(CC(=O)NCC2CCCO2)Cc2ccccc2)cc1` (stereo not shown), the “hERG current change (%, negative = inhibition) at 10uM” value is recorded as -5.67%. As to `O=C(NCCNC(=O)c1ccc(Cl)cc1Cl)c1ccccn1`, the “hERG current change (%, negative = inhibition) at 10uM” value is 20.2%. In the case of `O=C(O)c1ccc(-c2nnn(Cc3cccc(C(F)(F)F)c3)n2)cc1`, the “hERG current change (%, negative = inhibition) at 10uM” value was -12.3%. `COc1ccccc1CNC(=O)C1CCN(S(=O)(=O)c2c(C)noc2C)CC1`: the “hERG current change (%, negative = inhibition) at 10uM” value is given as 2.86%. The value for `COc1ccccc1C(=O)NCC(=O)N/N=C/c1ccncc1` was -2.66%; that for `CC(=O)c1cccc(OCC(=O)N2CCN(c3ccc(C(F)(F)F)cn3)CC2)c1` was -16.3%. The value for `CCN(CC)CCCOC(=O)C(OC)(c1ccccc1)c1ccccc1.Cl` was -27.9%; that for `COc1cccc(CNS(=O)(=O)c2c(C)[nH]c(C)c2C(=O)N2CCCC2)c1` was -5.06%; that for `Cc1nc2ccc(S(=O)(=O)NC(C(=O)N3CCCCCC3)C(C)C)cc2s1` (stereo not shown) was -12.4%. As to `O=C(COC(=O)Cc1cccs1)Nc1ccc(F)c(F)c1F`, the “hERG current change (%, negative = inhibition) at 10uM” value is 18%. The value for `CS(=O)(=O)c1ccc(N2CCOCC2)c(S(C)(=O)=O)c1` was -5.39%. Take `CCOc1ccc2ccccc2c1/C=N/n1cncn1`: the “hERG current change (%, negative = inhibition) at 10uM” value was -18.6%. Regarding `CCCc1nc2ccc(NC(=O)NCCC(=O)OCC)cc2c(=O)n1Cc1ccc(Cl)cc1`, the “hERG current change (%, negative = inhibition) at 10uM” value worked out at 10.9%. Regarding `COc1ccc(C(=O)NCCn2cc(SCC(=O)NCC3CCCO3)c3ccccc32)cc1` (stereo not shown), the “hERG current change (%, negative = inhibition) at 10uM” value is -20.3%. Regarding `CCCN1CCN(CCCNC(=S)Nc2ccc3nc(N4CCN(CC)CC4)cc(C)c3c2)CC1`, the “hERG current change (%, negative = inhibition) at 10uM” value was 7.49%.

Regarding `Cc1ccc(C(=O)n2nnc3ccccc32)cc1[N+](=O)[O-]`, the “hERG current change (%, negative = inhibition) at 10uM” value came to 8.94%.
